This is an account of results in the supplement of paper PMC4604168 (melanoma cell lines).

Test systems include WM115; WM1716; WM1745; WM3526; WM3619; WM451Lu.
Holding throughout (test): cell count relative to DMSO control; melanoma cells; higher = more viable cells
What all share (settings): library dose: low library concentration; 72 h

Molecules are shown by their SMILES. The list shows a part of the results. Most values come without repeats; read them as rough.
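Further: cell number obtained by counting DAPI-stained nuclei in high-throughput microscope images with image analysis software, screen run in 1,536-well plates.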

Regarding `CNC(=O)c1cc(Oc2ccc(NC(=O)Nc3ccc(Cl)c(C(F)(F)F)c3)cc2)ccn1` [sorafenib] + C/C(O)=C(\C#N)C(=O)Nc1cc(Br)ccc1Br [LFM-A13] (first compound 0.4 µM, partner dose 2 µM), the cell count with WM115 was 81.6%; with WM1716, 84.2%; with WM1745, 88.6%; in the experiment on WM3526, 77.6%; in the experiment on WM3619 it was 101%; in the experiment with WM451Lu, 83.2%.

Take `NC1(c2ccc(-c3nc4ccn5c(=O)[nH]nc5c4cc3-c3ccccc3)cc2)CCC1` + C/C(O)=C(\C#N)C(=O)Nc1cc(Br)ccc1Br [LFM-A13] (first compound 0.4 µM, partner dose 2 µM): the cell count with WM115 stood at 74.5%; in the experiment on WM1716, 81%; in the experiment on WM1745, 105%; with WM3526, 57%; in the experiment with WM3619, 98.6%; with WM451Lu, 75.8%.

In the case of `O=c1[nH]nc(Sc2ncc([N+](=O)[O-])s2)n1-c1ccc2c(c1)OCCO2` + O=C(Oc1ccc([N+](=O)[O-])cc1)N1CCC(C(O)(c2ccc3c(c2)OCO3)c2ccc3c(c2)OCO3)CC1 [JZL184] (first compound 0.2 µM, partner dose 1 µM), the cell count was 94% in the experiment with WM115; 97.9% in the experiment with WM1716; 92.9% in the experiment on WM1745; 102% in the experiment with WM3526; 107% in the experiment with WM3619; 156% in the experiment with WM451Lu.

`Cc1cn(-c2cc(NC(=O)c3ccc(C)c(Nc4nccc(-c5cccnc5)n4)c3)cc(C(F)(F)F)c2)cn1` [nilotinib] + Cc1cc(SCc2sc(-c3ccc(C(F)(F)F)c(F)c3)nc2C)ccc1OCC(=O)O [GW0742] (first compound 0.2 µM, partner dose 2 µM): the cell count came to 105% in the experiment on WM115; 82.3% in the experiment with WM1716; 78.7% with WM1745; 101% in the experiment with WM3526; 91.2% in the experiment with WM3619; 110% in the experiment with WM451Lu.

As to `COc1cc([C@@H]2c3cc4c(cc3[C@@H](O[C@@H]3O[C@@H]5CO[C@@H](C)O[C@H]5[C@H](O)[C@H]3O)[C@H]3COC(=O)[C@H]23)OCO4)cc(OC)c1O` [etoposide] + O=C(Oc1ccc([N+](=O)[O-])cc1)N1CCC(C(O)(c2ccc3c(c2)OCO3)c2ccc3c(c2)OCO3)CC1 [JZL184] (first compound 0.02 µM, partner dose 1 µM), the cell count came out at 86.1% in the experiment with WM115; 93.4% in the experiment on WM1716; 92.4% with WM1745; 92.2% in the experiment with WM3526; 85.7% in the experiment on WM3619; 99.8% in the experiment on WM451Lu.

`COC(=O)c1sccc1S(=O)(=O)Nc1ccc(Nc2ccccc2)cc1OC` + C/C(O)=C(\C#N)C(=O)Nc1cc(Br)ccc1Br [LFM-A13] (first compound 1 µM, partner dose 2 µM): the cell count in the experiment on WM115 was 109%; in the experiment on WM1716, 90.5%; in the experiment on WM1745, 90.9%; with WM3526, 98.2%; in the experiment on WM3619, 98.5%; in the experiment on WM451Lu, 94.5%.

Take `CS(=O)(=O)c1ccc(C(=O)Nc2ccc(Cl)c(-c3ccccn3)c2)c(Cl)c1` [vismodegib] + Cc1cc(SCc2sc(-c3ccc(C(F)(F)F)c(F)c3)nc2C)ccc1OCC(=O)O [GW0742] (first compound 1 µM, partner dose 2 µM): the cell count in the experiment on WM115 was 102%; in the experiment on WM1716, 115%; in the experiment on WM1745, 103%; with WM3526, 92.1%; in the experiment with WM3619, 89%; in the experiment on WM451Lu, 135%.

As for `NC1(c2ccc(-c3nc4ccn5c(=O)[nH]nc5c4cc3-c3ccccc3)cc2)CCC1` + Cc1cc(SCc2sc(-c3ccc(C(F)(F)F)c(F)c3)nc2C)ccc1OCC(=O)O [GW0742] (first compound 0.4 µM, partner dose 2 µM), the cell count in the experiment on WM115 amounted to 75.5%; with WM1716, 96.3%; with WM1745 it was 96.1%; with WM3526, 81.1%; with WM3619, 88.7%; in the experiment with WM451Lu, 116%.

For `NC(=O)c1ccc(N(C(N)=O)c2c(F)cccc2F)nc1-c1ccc(F)cc1F` + Cc1cc(SCc2sc(-c3ccc(C(F)(F)F)c(F)c3)nc2C)ccc1OCC(=O)O [GW0742] (first compound 0.4 µM, partner dose 2 µM), the cell count turned out to be 91% in the experiment on WM115; 110% with WM1716; 107% with WM1745; 108% in the experiment with WM3526; 98.5% with WM3619; 110% with WM451Lu.

Consider `COc1ccc2c(c1)CCC1C2CCC2(C)C(NCCCCCCN3C(=O)C=CC3=O)CCC12` (stereo unspecified) + O=C(Oc1ccc([N+](=O)[O-])cc1)N1CCC(C(O)(c2ccc3c(c2)OCO3)c2ccc3c(c2)OCO3)CC1 [JZL184] (first compound 0.4 µM, partner dose 1 µM), for which the cell count amounted to 92.4% in the experiment on WM115; 76.2% in the experiment with WM1716; 85.4% in the experiment with WM1745; 81.5% in the experiment on WM3526; 90.5% in the experiment on WM3619; 107% with WM451Lu.

In the case of `Cc1ccc(Nc2nccc(N(C)c3ccc4c(C)n(C)nc4c3)n2)cc1S(N)(=O)=O` [Pazopanib] + C[C@]12O[C@H](C[C@]1(O)CO)n1c3ccccc3c3c4c(c5c6ccccc6n2c5c31)CNC4=O [Lestaurtinib] (first compound 0.4 µM, partner dose 0.004 µM), the cell count was determined as 88.2% with WM115; 85.6% with WM1716; 82.9% with WM1745; 89% in the experiment with WM3526; 99.2% in the experiment with WM3619; 85% in the experiment on WM451Lu.

Consider `Cn1cnc2c(F)c(Nc3ccc(Br)cc3Cl)c(C(=O)NOCCO)cc21` [selumetinib] + Cn1cc(C2=C(c3cn(C4CCN(Cc5ccccn5)CC4)c4ccccc34)C(=O)NC2=O)c2ccccc21 [Enzastaurin] (first compound 0.015 µM, partner dose 0.8 µM), for which the cell count in the experiment on WM115 came out at 97.4%; with WM1716 it was 113%; with WM1745 it was 104%; in the experiment on WM3526, 82.5%; in the experiment with WM3619, 67.2%; in the experiment on WM451Lu, 94.5%.

Regarding `CC[C@]1(O)C[C@H]2CN(CCc3c([nH]c4ccccc34)[C@@](C(=O)OC)(c3cc4c(cc3OC)N(C=O)[C@H]3[C@@](O)(C(=O)OC)[C@H](OC(C)=O)[C@]5(CC)C=CCN6CC[C@]43[C@@H]65)C2)C1` [vincristine] + C[As](C)SC[C@H](NC(=O)CC[C@H](N)C(=O)O)C(=O)NCC(=O)O [Darinaparsin] (first compound 0.0001 µM, partner dose 0.4 µM), the cell count with WM115 worked out at 44.8%; in the experiment on WM1716 it was 45.2%; with WM1745 it was 84%; in the experiment with WM3526 it was 54.8%; with WM3619, 34.7%; in the experiment with WM451Lu, 49.6%.

For `Cc1cc(Nc2cc(N3CCN(C)CC3)nc(/C=C/c3ccccc3)n2)n[nH]1` + N.N.[Cl][Pt][Cl] [cisplatin] (first compound 0.04 µM, partner dose 1.6 µM), the cell count in the experiment with WM115 amounted to 108%; with WM1716, 97.4%; in the experiment with WM1745, 99.4%; in the experiment on WM3526, 110%; with WM3619, 101%; in the experiment on WM451Lu, 109%.

Regarding `C[C@]1(O)C[C@@H](c2nc(-c3ccc4ccc(-c5ccccc5)nc4c3)c3c(N)nccn32)C1` + O=C(Oc1ccc([N+](=O)[O-])cc1)N1CCC(C(O)(c2ccc3c(c2)OCO3)c2ccc3c(c2)OCO3)CC1 [JZL184] (first compound 0.4 µM, partner dose 1 µM), the cell count in the experiment with WM115 amounted to 101%; in the experiment with WM1716, 105%; in the experiment with WM1745, 77.9%; in the experiment on WM3526 it was 83.9%; with WM3619, 94.9%; in the experiment on WM451Lu, 86.3%.

For `C[C@@H](N)c1ccc(C(=O)Nc2ccnc3[nH]ccc23)cc1` + C[C@]12O[C@H](C[C@]1(O)CO)n1c3ccccc3c3c4c(c5c6ccccc6n2c5c31)CNC4=O [Lestaurtinib] (first compound 0.4 µM, partner dose 0.004 µM), the cell count stood at 106% in the experiment on WM115; 70.5% in the experiment on WM1716; 84.3% in the experiment on WM1745; 128% in the experiment with WM3526; 108% in the experiment on WM3619; 98.9% in the experiment with WM451Lu.

For `CCCS(=O)(=O)Nc1ccc(F)c(C(=O)c2c[nH]c3ncc(Cl)cc23)c1F` + Cc1cc(SCc2sc(-c3ccc(C(F)(F)F)c(F)c3)nc2C)ccc1OCC(=O)O [GW0742] (first compound 0.08 µM, partner dose 2 µM), the cell count was found to be 102% with WM115; 121% with WM1716; 80.7% with WM1745; 71.8% in the experiment with WM3526; 105% in the experiment on WM3619; 104% with WM451Lu.

Take `Cc1cc(SCc2sc(-c3ccc(C(F)(F)F)c(F)c3)nc2C)ccc1OCC(=O)O` + CCCCCCCCCCCC1=C(O)C(=O)C=C(O)C1=O [Embelin] (first compound 2 µM, partner dose 1.2 µM): the cell count worked out at 103% in the experiment with WM115; 114% in the experiment on WM1716; 95.7% with WM1745; 115% in the experiment on WM3526; 119% in the experiment with WM3619; 98.9% in the experiment on WM451Lu.

`NCC(=O)Nc1ccc(-n2nc(C(F)(F)F)cc2-c2ccc3c(ccc4ccccc43)c2)cc1` + O=C(Oc1ccc([N+](=O)[O-])cc1)N1CCC(C(O)(c2ccc3c(c2)OCO3)c2ccc3c(c2)OCO3)CC1 [JZL184] (first compound 1 µM, partner dose 1 µM): the cell count came out at 105% in the experiment on WM115; 99.8% in the experiment on WM1716; 103% in the experiment with WM1745; 69.3% in the experiment with WM3526; 102% in the experiment on WM3619; 63.1% with WM451Lu.

For `O=C(O)[C@@H]1[O][Sb](=[O])([O][Sb]2(=[O])[O][C@H]([C@H](O)CO)[C@H](O)[C@H](C(=O)O)[O]2)[O][C@H]([C@H](O)CO)[C@@H]1O` (stereo partly specified) [stibogluconate] + C/C(O)=C(\C#N)C(=O)Nc1cc(Br)ccc1Br [LFM-A13] (first compound 2 µM, partner dose 2 µM), the cell count is 94.1% in the experiment on WM115; 94.9% in the experiment on WM1716; 99.8% with WM1745; 93.7% in the experiment on WM3526; 114% in the experiment with WM3619; 108% in the experiment with WM451Lu.

For the compound `Nc1cccc2c1CN(C1CCC(=O)NC1=O)C2=O` (stereo unspecified) [lenalidomide] + Cc1cc(SCc2sc(-c3ccc(C(F)(F)F)c(F)c3)nc2C)ccc1OCC(=O)O [GW0742] (first compound 1 µM, partner dose 2 µM), the cell count was 102% in the experiment on WM115; 108% with WM1716; 104% in the experiment with WM1745; 91.3% in the experiment with WM3526; 115% in the experiment on WM3619; 132% in the experiment with WM451Lu.
